Among the data in the supplement of paper PMC10126150 are switch fluorescence ratio values, retold here.

The data set concerns ATP. As to the kind of experiment: switch fluorescence ratio, 500 uM ATP over buffer (Cy3 cluster intensity, sum of 5 cycles each) (fold (ratio)); higher = stronger signal-on switching upon ATP binding; sequences stand for … in TCGTCGGCAGCGTCAGATGTGTATAAGAGACAGTTTTTTTTTTTTTTTTTTTTTTTTT…TC. As to conditions: aptamer strand: ATP DNA aptamer (quencher-CACCTGGGGGAGTATTGCGGAGGAAGG + anchor), 100 nM annealed; ATP concentration: 500 uM; one replicate. An outline of the steps: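 Values give the fluorescence ratio for each switch-domain sequence, averaged from per-cluster ratios of summed target-cycle to summed buffer-cycle Cy3 intensity. The Cy3-labelled switching-strand clusters sat on a modified Illumina MiSeq flow-cell, were annealed to 100 nM quencher-labelled ATP aptamer, and were imaged in selection buffer, then after 15 min with 500 uM ATP at 22 °C. Five cycles ran with NaOH stripping and re-annealing between them, and clusters outside 100-1000 RFU were excluded.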

Sequences with one replicate were seen in a single cluster, so their values are uncertain.
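Note: ATP exposure 15 min at 22 °C before imaging.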

Take TCCCTTATT: the switch fluorescence ratio was determined as 1.07.

Regarding TAACGTTTCG, the switch fluorescence ratio is 0.968.

For the sequence GGATCACCAA, the switch fluorescence ratio was 1.02.

For the sequence TAGGTCGAAG, the switch fluorescence ratio came out at 0.981.

As for GACCCTTGGG, the switch fluorescence ratio was 0.962.

TCTGTGATTG: the switch fluorescence ratio was determined as 0.997.

On to ATTCCCTGTA, for which the switch fluorescence ratio worked out at 1.03.

As to GTGGGTCTGA, the switch fluorescence ratio was 0.998.

In the case of TCGGAACCGA, the switch fluorescence ratio was 1.01.

As to GGTGTTATCA, the switch fluorescence ratio came out at 0.964.

Take GTTTGAGTCC: the switch fluorescence ratio amounted to 0.969.

As for CGCGAATTAT, the switch fluorescence ratio is 0.998.

Take TTTTAATAGG: the switch fluorescence ratio stood at 1.01.

For CAAAGGATGG, the switch fluorescence ratio is 0.987.

In the case of ACCCGGATTT, the switch fluorescence ratio was found to be 1.04.

In the case of CGAGGTCAAA, the switch fluorescence ratio came out at 1.21.

As for TCGCACAAAT, the switch fluorescence ratio came out at 1.12.

Turning to AGGAACAGGG, the switch fluorescence ratio came out at 1.02.

With GTATGTGGAA, the switch fluorescence ratio was determined as 1.02.

In the case of TAGCTTCAT, the switch fluorescence ratio turned out to be 0.999.

With CACAGTCCCG, the switch fluorescence ratio was found to be 1.04.

As for ACAGGGGGT, the switch fluorescence ratio is 1.08.

For CTATCATAT, the switch fluorescence ratio worked out at 1.02.

Turning to ATGCTGAGCA, the switch fluorescence ratio is 0.999.

With AATTTGTGGT, the switch fluorescence ratio turned out to be 0.987.

Consider TAATCTTTCG, for which the switch fluorescence ratio was 1.53.

In the case of ACGGGCCTT, the switch fluorescence ratio turned out to be 0.998.

Turning to AGTTCTCGCA, the switch fluorescence ratio came out at 1.06.

CCTGCAGGTA: the switch fluorescence ratio worked out at 1.05.

ATTCTGGTCA: the switch fluorescence ratio stood at 0.972.

For TGCGAAGTGC, the switch fluorescence ratio was found to be 1.1.

Turning to CATGGAGAAC, the switch fluorescence ratio was determined as 1.

For TCCATAGGGT, the switch fluorescence ratio worked out at 0.963.

Turning to TTAGTGAGGC, the switch fluorescence ratio came out at 0.986.

Take ATGAACAGCA: the switch fluorescence ratio was 1.02.

As for CTTGTTGTGA, the switch fluorescence ratio was determined as 0.955.

Consider CATATTAGG, for which the switch fluorescence ratio is 1.

Regarding GCGAGCTATC, the switch fluorescence ratio came to 1.24.

Take TTCCTAGTAA: the switch fluorescence ratio came to 1.19.

Regarding CAGTACACCT, the switch fluorescence ratio worked out at 1.23.

Regarding GTATGGCGGT, the switch fluorescence ratio amounted to 0.919.

As to AGCATGTCAA, the switch fluorescence ratio was 1.01.

With GAACTCGGGA, the switch fluorescence ratio amounted to 0.974.

Turning to GTTGCCCGCC, the switch fluorescence ratio stood at 1.

Consider TTATCTAGGT, for which the switch fluorescence ratio is 1.04.

With GGAAGTAATT, the switch fluorescence ratio is 0.976.

Turning to GAGAAGGCTA, the switch fluorescence ratio turned out to be 1.

Turning to CAAACACCAG, the switch fluorescence ratio came out at 1.05.

On to AAGTATGTTT, for which the switch fluorescence ratio was 0.997.

Consider GTGTGAACG, for which the switch fluorescence ratio is 1.

Take CTGGTTCGTG: the switch fluorescence ratio is 1.

Regarding CTACAGTCGA, the switch fluorescence ratio is 1.07.

In the case of TGATAGACAG, the switch fluorescence ratio worked out at 0.995.

As to TAAACTACCG, the switch fluorescence ratio came out at 1.07.

As for AGTGAGGGAG, the switch fluorescence ratio was 0.989.

TGAAGGAAG: the switch fluorescence ratio came to 1.

Turning to CCATCAACGG, the switch fluorescence ratio was found to be 1.

As for CTGTCTATTT, the switch fluorescence ratio turned out to be 0.98.

For TATAAGTGC, the switch fluorescence ratio was 1.02.

Turning to TCCGGGCTCA, the switch fluorescence ratio came to 1.16.

In the case of GATTAAGATC, the switch fluorescence ratio is 1.02.

On to ATCAAGCGTA, for which the switch fluorescence ratio came to 1.01.

As for ACTTTAACGC, the switch fluorescence ratio stood at 1.07.

Regarding TCGATTCG, the switch fluorescence ratio worked out at 1.02.

With CGTGTATAA, the switch fluorescence ratio amounted to 1.18.

With TGCTATTGAA, the switch fluorescence ratio turned out to be 1.02.

For the sequence GCCCCCTCAG, the switch fluorescence ratio worked out at 3.55.

Regarding GACTTCCTCA, the switch fluorescence ratio amounted to 2.18.

For TACAACCCAG, the switch fluorescence ratio is 1.15.

Take CGAGTGTTTC: the switch fluorescence ratio is 0.992.

For the sequence CTGTGACAGA, the switch fluorescence ratio was 0.988.

For CCCGGCATCC, the switch fluorescence ratio came to 1.6.

In the case of TTTTCCATA, the switch fluorescence ratio is 1.02.

As for CTCAGGCTAG, the switch fluorescence ratio was determined as 0.995.

As to TACCGTGTGT, the switch fluorescence ratio is 1.02.

Consider ATTCCCCTAT, for which the switch fluorescence ratio was found to be 1.01.

Take CGCCTTTAAG: the switch fluorescence ratio amounted to 1.

For the sequence AGCTGAAGT, the switch fluorescence ratio was 0.975.

As to ATCTTTCCGA, the switch fluorescence ratio is 1.13.

With CTAGGTCCCG, the switch fluorescence ratio was determined as 0.997.

Regarding GATGAACGCG, the switch fluorescence ratio is 1.01.

Turning to GCCAGCTGTA, the switch fluorescence ratio came to 1.01.

With ATGGAGCATC, the switch fluorescence ratio was determined as 1.95.

On to CTATATCGGT, for which the switch fluorescence ratio worked out at 0.97.

For the sequence GTGTCTTCGG, the switch fluorescence ratio came to 1.02.

For the sequence TAAGAGGCAA, the switch fluorescence ratio is 1.21.

Regarding TAGAGTACTC, the switch fluorescence ratio amounted to 1.01.

Consider AAACTAGAAC, for which the switch fluorescence ratio amounted to 1.

Regarding TGACATAGAG, the switch fluorescence ratio came out at 0.99.

Regarding TAGTGAGCTT, the switch fluorescence ratio came to 1.05.

In the case of GTGGGAGC, the switch fluorescence ratio turned out to be 1.1.

For TGACTGTTCG, the switch fluorescence ratio turned out to be 1.04.

GGGAAGCCTC: the switch fluorescence ratio turned out to be 1.04.

Consider GCGAGTGGGG, for which the switch fluorescence ratio is 1.04.

Take TGTTTTACCT: the switch fluorescence ratio worked out at 0.997.

In the case of ACTTCCAGCG, the switch fluorescence ratio was found to be 1.56.

On to CGAATGGTTA, for which the switch fluorescence ratio was 1.04.

Consider CTCACGGAA, for which the switch fluorescence ratio amounted to 1.81.

Turning to AGCGTGCACG, the switch fluorescence ratio turned out to be 1.03.

GTATGAGAT: the switch fluorescence ratio came to 0.99.

Consider TAAAACAGGT, for which the switch fluorescence ratio turned out to be 1.05.

As to AGACCAAGTT, the switch fluorescence ratio was found to be 1.8.

In the case of CTTTGGACAA, the switch fluorescence ratio is 1.02.

Regarding CGTACTGCTA, the switch fluorescence ratio worked out at 1.07.

As for CAGCGGTACC, the switch fluorescence ratio came out at 1.19.

Turning to GCTAGTAGTT, the switch fluorescence ratio amounted to 0.968.

GGAATCGGTT: the switch fluorescence ratio was 0.972.

For ATCCTGCGGT, the switch fluorescence ratio was found to be 0.995.

Turning to TGTGATAACT, the switch fluorescence ratio came out at 0.979.

Consider TCCTTCAGAT, for which the switch fluorescence ratio came out at 1.02.

For the sequence ATATATGCTA, the switch fluorescence ratio stood at 1.03.

For CGTACTTAAT, the switch fluorescence ratio is 1.08.

With GAATTGGCGA, the switch fluorescence ratio is 1.02.

Turning to CCAGTTGCTC, the switch fluorescence ratio is 1.04.

For TTAGGGGTAA, the switch fluorescence ratio worked out at 1.

With ATTTCAGTTT, the switch fluorescence ratio turned out to be 1.01.

In the case of TGAGAATT, the switch fluorescence ratio was 1.01.

In the case of CGCACGTAGC, the switch fluorescence ratio amounted to 1.14.

Take AGGGGAATCC: the switch fluorescence ratio was determined as 1.07.

As for TTACCCCACA, the switch fluorescence ratio is 1.31.
